Where “and” joins values, the source holds several entries; their conditions need not be identical. Equal values may be shown once. In all, about 16,000 compounds went through this assay and about 40 (0.2%) were called active. Another 1% or so got no clear call; they are omitted. The call rests on the fitted dose curve; in most records, active means well fitted activation curve with a large enough effect; inconclusive means small, poorly fitted or top-dose-only effect, or another doubt; inactive means no such curve, though single readings can be large or run the other way. This is one part of the list. Starred links: 1 amine or outer side, 2 acyl side, 3 side chain; linkers in the order of their positions; H or OH if unused. Positions of bridges follow the written chain, without caps; N, C: chain ends. Non-standard residues stand in square brackets, D forms with d. Residues, ends and D or L forms follow the SMILES beside them. *: point of attachment. X5 = NC1=N[C@@H]([C@H](N[*:1])C(=O)[*:2])C[C@H](O)N1; ΔAla(Z-3-ureido) = NC(=O)N/C=C(\N)C(=O)O; β3hOrn = NCCC[C@H](N)CC(=O)*; Dap = NC[C@H](N)C(=O)O
On the % scale 0 is the no-effect control and ±100 the full control effect.

Chain of UniProt Q8WZA2 (Q8WZA2 whole entry, looked up): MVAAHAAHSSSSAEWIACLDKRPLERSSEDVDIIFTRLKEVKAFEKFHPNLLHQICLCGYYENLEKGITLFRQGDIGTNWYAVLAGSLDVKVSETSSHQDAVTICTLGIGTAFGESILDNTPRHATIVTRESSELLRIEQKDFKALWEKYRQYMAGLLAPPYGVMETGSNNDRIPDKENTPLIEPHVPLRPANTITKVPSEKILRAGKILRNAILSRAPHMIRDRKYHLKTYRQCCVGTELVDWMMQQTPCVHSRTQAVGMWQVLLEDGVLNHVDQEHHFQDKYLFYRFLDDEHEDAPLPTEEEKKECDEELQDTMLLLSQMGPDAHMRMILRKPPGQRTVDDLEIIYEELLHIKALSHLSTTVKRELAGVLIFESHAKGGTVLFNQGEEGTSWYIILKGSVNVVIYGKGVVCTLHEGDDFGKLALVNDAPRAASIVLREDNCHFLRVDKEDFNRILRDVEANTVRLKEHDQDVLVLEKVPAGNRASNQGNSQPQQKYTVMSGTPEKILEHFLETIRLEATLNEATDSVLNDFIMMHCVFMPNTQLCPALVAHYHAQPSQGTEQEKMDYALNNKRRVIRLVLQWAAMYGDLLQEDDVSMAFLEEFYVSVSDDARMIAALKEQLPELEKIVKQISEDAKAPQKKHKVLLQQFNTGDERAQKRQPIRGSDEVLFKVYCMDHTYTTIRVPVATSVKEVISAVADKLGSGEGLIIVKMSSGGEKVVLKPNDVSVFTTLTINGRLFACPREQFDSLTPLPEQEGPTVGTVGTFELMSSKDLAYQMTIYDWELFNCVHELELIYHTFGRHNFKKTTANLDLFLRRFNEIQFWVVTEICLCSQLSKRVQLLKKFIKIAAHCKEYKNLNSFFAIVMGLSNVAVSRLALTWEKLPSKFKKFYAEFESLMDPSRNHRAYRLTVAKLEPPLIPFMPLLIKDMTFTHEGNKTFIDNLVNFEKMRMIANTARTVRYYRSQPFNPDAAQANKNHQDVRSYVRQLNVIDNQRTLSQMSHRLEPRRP

The test addresses Rap guanine nucleotide exchange factor 4 (Homo sapiens) (UniProt Q8WZA2). Nature of the test: Validation qHTS for agonist of cAMP-regulated guanine nucleotide exchange factor 4 (EPAC2).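 Further: exchange makes BODIPY-GDP fluorescence drop when released from Rap1B; series mostly up to about 150 µM.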 To be noted: EPAC2 Rap1B BODIPY-GDP exchange, fluorescence; activation: hits give high values. The procedure, abridged:
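Signal normalized against 6.5 mM cAMP as agonist control. Mix of EPAC2 (100 nM), RAP1B-BODIPY-GDP (250 nM) and GDP (50 uM) was read kinetically at 480/540 nm, every 5 min over 30 min, after 5 min room-temperature incubation with compound.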
Background: In qHTS, concentration-response curves come from the screen itself.
Consider `O=C(c1ccco1)N1CCC2(CC1)CN(c1ccc(-c3ccccc3)cc1)C2`, for which the activation was inactive: 9.86%.

On to `CCN(CC)CCOc1ccccc1C(=O)CCc1ccccc1`, for which the activation was inactive: -13.1%.

In the case of `CNCCCN1c2ccccc2CCc2ccccc21`, the activation was inactive: -9.72% and inactive: 6.06% and inactive: -15%.

With `COc1ccc(CN2CCOc3c(cc(-c4cccc(OC)n4)cc3OC)C2)c(O)c1`, the activation is inactive: 5.29%.

Turning to `O=S(=O)(c1ccccc1)N1CCC2(CCN(c3ccc(-c4ccccc4)cc3)CC2)CC1`, the activation is inactive: -30.6%.

Turning to `O=C(NCc1nnc2n1CCN(Cc1ccccc1C(F)(F)F)CC2)c1ccncc1`, the activation is inactive: -18.7%.

As for `N.N.O=C(O)C1(C(=O)O)CCC1.[Pt]`, the activation was inactive: -36.7% and inactive: -12.4%.

On to `COc1cc2cc[n+]3cc4c(OC)c(OC)ccc4cc3c2cc1OC`, for which the activation was inactive: -3.6%.

With `Fc1ccc([C@@H]2CCNC[C@H]2COc2ccc3c(c2)OCO3)cc1`, the activation is inactive: -3.89% and inactive: 4.92%.

As to `Cc1cccc(C)c1N(CCCc1cccnc1)C(=O)C(C)N` (centres undefined), the activation is inactive: 4.5%.

`Cc1nc2cncnc2n(-c2ccccc2)c1=O`: the activation is inactive: 2.6%.

Consider `O=C(Cc1cscn1)N1CCOc2ccc(CN3CCN(c4ccccn4)CC3)cc2C1`, for which the activation is inactive: -1.17%.

`CN(C/C=C/C#CC(C)(C)C)Cc1cccc2ccccc12`: the activation is inactive: -0.611%.

For the molecule `CCCCCC(=O)O[C@@]1(C(C)=O)CCC2C3CCC4=CC(=O)CC[C@@]4(C)C3CC[C@]21C` (some centres undefined), the activation is inactive: 11%.

As for `CC(C)(C)CC(C)(C)N=C1Nc2ccccc2N[C@]12C[C@H]1CCCC(=O)N3CC[C@@H](C2)[C@@H]13`, the activation is inactive: -43.1%.

As to `O=c1[nH]cnc2c1ncn2[C@H]1CC[C@@H](CO)O1`, the activation is inactive: -23.6%.

As to `CCCCCCc1ccc(N2C[C@H](Cc3ccccc3)[C@@H](CC(=O)Nc3ccccc3)C2=O)cc1`, the activation is inactive: 3.68%.

As to `NCC1OC(OC2C(N)CC(N)[C@@H](O)[C@@H]2OC2O[C@H](CO)[C@@H](O[C@@H]3OC(CN)C(O)C(O)C3N)C2O)C(N)C(O)C1O` (some centres undefined), the activation is inactive: -16.7%.

Take `NCCC[C@H](N)CC(=O)N[C@H]1CNC(=O)[C@H]([C@H]2C[C@H](O)NC(N)=N2)NC(=O)/C(=C/NC(N)=O)NC(=O)[C@H](CO)NC(=O)[C@H](CO)NC1=O` (β3hOrn-[Dap]SS[ΔAla(Z-3-ureido)][X5]; lactam 1-C): the activation is inactive: -19.1%.

As for `CS(=O)(=O)Nc1cccc(-c2cncnc2-n2ccnc2)c1`, the activation was inactive: -20.2%.

Consider `C/C=C1/C(=O)C[C@@H]2[C@H]3CCC4=CC(=O)CC[C@]4(C)[C@@H]3CC[C@]12C`, for which the activation is inactive: -4.77%.

On to `O=C(NC1CCCCC1)NC1CCCCC1`, for which the activation was inactive: -4.27%.

On to `CC12CCC3C(=CCc4cc(O)ccc43)C1CCC2=O` (centres undefined), for which the activation was inactive: -16.5%.

On to `COc1ccccc1CNc1ncnc2ccc(-c3ccc(C(=O)N(C)C)cc3)cc12`, for which the activation is inactive: -18.1%.

With `Cc1noc(C)c1-c1nccc(N(C)Cc2ccco2)n1`, the activation is inactive: -6.54%.

For `COc1ccc(C(C)C(=O)c2ccc(O)cc2O)cc1` (centres undefined), the activation was inactive: -4.36%.

With `NC1(C(=O)O)CCc2cc(C(=O)O)ccc21` (centres undefined), the activation is inactive: -2.03% and inactive: -10.4%.

With `NC(CO)C(=O)NNCc1ccc(O)c(O)c1O` (centres undefined), the activation is inactive: 8.29% and inactive: 8.47% and inactive: -41.1%.

`CCCCCCCCCCC(CO)CCCCCCCC` (centres undefined): the activation was inactive: -18.7%.

Consider `C=C1CCC2C(CC2(C)C)C(=O)CCC1O` (centres undefined), for which the activation was inactive: -12.9%.

As to `Nc1nc2c(c(=O)[nH]1)N(C=O)C(CNc1ccc(C(=O)N[C@@H](CCC(=O)O)C(=O)O)cc1)CN2` (some centres undefined), the activation was inactive: -22.4%.

Turning to `COc1ccccc1CCNc1ncnc2sc(C(=O)N3CCCN(C=O)CC3)c(C)c12`, the activation was inactive: 0.376%.

In the case of `COCC(=O)Nc1cc(Sc2ccccc2)ccc1N=C(NC(=O)OC)NC(=O)OC`, the activation was inactive: 7.91%.

On to `COc1cccc(Cn2c(=O)cnc3cnc(N(C)C)nc32)c1`, for which the activation is inactive: -16.1%.

As to `C[C@]12CCC3c4ccc(O)cc4CCC3C1CCC2OC(=O)CCC1CCCC1` (some centres undefined), the activation was inactive: -7.93%.

For `COc1ccc2c(c1OC)C(=O)N1c3ccccc3C(=O)OC21` (centres undefined), the activation is inactive: -12.3%.

As for `Cc1nc2cnc(N3CCOCC3)nc2n(C[C@H]2CCCO2)c1=O`, the activation is inactive: -11.2%.

For `Cc1cccc(C(=O)NCN2CCN(c3ccccc3C#N)CC2)c1`, the activation was inactive: 6.04% and inactive: -13% and inactive: -24.2%.

With `C/C(O)=C1\C(=O)[C@@H]2[C@H]3c4c[nH]c5cccc(c45)C[C@H]3C(C)(C)N2C1=O`, the activation is inactive: 2.45% and inactive: -8.53%.

In the case of `C/C=C1\[C@H]2C=C(C)C[C@]1(N)c1ccc(=O)[nH]c1C2`, the activation was inactive: 0.481%.

On to `O=C(CS)Nc1ccccc1`, for which the activation is inactive: 1.14%.

Take `O=C(NCC1CCC2(CCN(Cc3c[nH]c4ccccc34)CC2)O1)C1CCOCC1` (centres undefined): the activation was inactive: 1.11%.

For the molecule `COc1ccc(-c2nc3cnc(N4CCN(C)CC4)nc3n(-c3ccc(OC)cc3)c2=O)cc1`, the activation is inactive: -13.6%.

In the case of `O=c1[nH]cnc2[nH]ncc12`, the activation was inactive: -25.3% and inactive: -1.89%.

With `CS(=O)(=O)Nc1cccc(-c2ccc3ncnc(NCCN4CCOCC4)c3c2)c1`, the activation was inactive: -14.6%.

For `CN(C)C(=O)Oc1cccc([N+](C)(C)C)c1`, the activation was inactive: -3.39% and inactive: -16.7% and inactive: -7.58%.

Consider `Cc1ccc2c(c1)C(N1CCN(C)CC1)=Nc1cccnc1N2`, for which the activation is inactive: 13.1%.

Consider `COc1cccc(-c2cc(=O)c3ccc(OC)cc3o2)c1`, for which the activation is inactive: -3.24%.

As to `CN1CCC(OC(c2ccccc2)c2ccccc2)CC1`, the activation was inactive: -11.4%.

With `COc1cccc(Cn2c(=O)c(CCc3ccccc3)nc3cnc(N4CCOCC4)nc32)c1`, the activation is inactive: -5.96%.

Turning to `CCOC(=O)[C@H](CCc1ccccc1)N[C@@H](C)C(=O)N1Cc2cc(OC)c(OC)cc2C[C@H]1C(=O)O`, the activation is inactive: -18.6%.

Turning to `O=C(Oc1cccc2cccnc12)c1ccccc1`, the activation was inactive: -5.8%.

With `CCCCCCOc1ccc(C(=N)N(CCCC)CCCC)c2ccccc12`, the activation was inactive: -30.1%.

On to `O=C1[C@H](Cc2ccccc2)NCCCC[C@H](c2ccc(Cl)cc2)N1Cc1ccccc1`, for which the activation was inactive: -9.44%.

`Cc1noc(C)c1C(=O)N1CCC[C@@]2(CCN(C(=O)Nc3cccc(C#N)c3)C2)C1`: the activation was inactive: -13.3%.

In the case of `Clc1ccc(Nc2nnc(Cc3ccncc3)c3ccccc23)cc1`, the activation was inactive: -11.8% and inactive: -0.915%.

As to `COc1cc2c(cc1OC)CN(C(=O)[C@@H]1C[C@H](NCc3cn(C)c4ccccc34)CN1C1Cc3ccccc3C1)CC2`, the activation is inactive: -8.19%.

Consider `C=CC(=O)O`, for which the activation is inactive: -29.6%.

Take `Cc1cc(O)c2c(c1)C(=O)c1cc(O)cc(O)c1C2=O`: the activation was inactive: 1.15% and inactive: -30.8%.

On to `CN(C)C(=O)c1ccc(-c2cc(N(C)Cc3ccco3)ncn2)cc1`, for which the activation is inactive: 1.37%.

`O=S(=O)(NCc1ccc(F)cc1)c1ccccc1Br`: the activation was inactive: -27.2%.

As to `CO[C@H]1C[C@@H]2CC[C@@H](C)[C@@](O)(O2)C(=O)C(=O)N2CCCC[C@H]2C(=O)O[C@H]([C@H](C)C[C@@H]2CC[C@@H](O)[C@H](OC)C2)CC(=O)[C@H](C)C=C(C)[C@@H](O)[C@@H](OC)C(=O)[C@H](C)C[C@H](C)/C=C/C=CC=C1C`, the activation is inactive: -42.7% and inactive: -40.5%.

Consider `CN(Cc1ccco1)c1ncncc1-c1ccccc1C(F)(F)F`, for which the activation was inactive: -1.28%.

For the molecule `CO/N=C(\C(=O)N[C@@H]1C(=O)N2C(C(=O)O)=C(CSc3cnns3)CS[C@H]12)c1csc(N)n1`, the activation was inactive: -30%.

For the molecule `CC(C)CN(C[C@@H](O)[C@H](Cc1ccccc1)NC(=O)O[C@H]1CO[C@H]2OCC[C@H]21)S(=O)(=O)c1ccc(N)cc1`, the activation was inactive: -6.34%.

Turning to `COc1cccc(-c2nc3cc4c(cc3cc2CN(C(=O)c2cc(C)nn2C)C2CC2)CCC4)c1OC`, the activation was inactive: -15.8%.

Regarding `CN(C)C(=O)c1ccc(-c2ccc3ncnc(N(C)C)c3c2)cc1`, the activation is inactive: -8.88%.

As for `CCCCCc1ccc(-c2cn(Cc3ccc([N+](=O)[O-])cc3)nn2)cc1`, the activation is inactive: -1.3%.

On to `COCCn1c(=O)c(CCc2ccccc2)nc2cnc(N3CCN(C)CC3)nc21`, for which the activation is inactive: -2.75%.

Turning to `C=CC1=C(C)C2=NC1=CC1=NC(=CC3=NC(=CC4=NC(=C2)C(C)=C4CCC(=O)O)C(CCC(=O)O)=C3C)C(C=C)=C1C.[Zn]`, the activation was inactive: 0.597%.

Consider `Cn1c(=O)c(-c2ccccc2)nc2cnc(Nc3ccccc3)nc21`, for which the activation was inactive: -10.3%.

`O=C1CCN(CCc2ccccc2)CCN1CCO`: the activation is inactive: -8.5%.

With `CC1CC2(C)Oc3ccccc3C3OCC1(COC(=O)Nc1ccccc1)C(C)C32` (centres undefined), the activation is inactive: 10.1%.

On to `COc1cc(/C=C/C(=O)CC(=O)/C=C/c2ccc(O)c(OC)c2)ccc1O`, for which the activation was inactive: 11.6% and inactive: -19.4%.

In the case of `Cc1cccc(CNc2cc(-c3cccc(C#N)c3)ncn2)c1`, the activation was inactive: -7.29%.

Take `COc1ccccc1-c1ccnc(-n2ncc(C(=O)NCc3cccc(C)n3)c2C)n1`: the activation was inactive: -6.88%.

As for `COc1cc(CN2CCC3(CCC(CNC(=O)c4ccccc4)O3)CC2)cc(OC)c1` (centres undefined), the activation was inactive: -4.06%.

As to `COc1cc(C)c(CN2C[C@H](Sc3ccccn3)C[C@H]2C(=O)N(C)C)cc1C`, the activation is inactive: -7.63%.

Take `CCOc1ccc(NC(=S)Nc2ccc(OCC)cc2)cc1`: the activation was inactive: 11.6%.

Values taken from PubChem BioAssay AID1645887 (National Center for Advancing Translational Sciences (NCATS), 2021).
